Measured values: PubChem BioAssay AID1768 (National Center for Advancing Translational Sciences (NCATS), 2009)
About 620 (0.23%) of roughly 270,000 compounds were called active. Inconclusive means that the source gave no clear call. Such entries were picked first, then a sample of the others. The call rests on the fitted dose curve; in most records, active means well fitted inhibition curve with a large enough effect in the polarisation, with a control signal flat (not every such curve was filed as active); inconclusive means small, poorly fitted or top-dose-only effect, or effect the other way, or a change in a side signal; inactive means no such curve, though single readings can be large or run the other way; the % refers to the polarisation. Where the call is inconclusive, the potency comes from a doubtful curve fit. “Side channel” marks fits to a control or component signal instead of the main read-out.

Molecular target: Menin (Homo sapiens) (UniProt O00255)
Assay: qHTS Assay for Inhibitors Targeting the Menin-MLL Interaction in MLL Related Leukemias: Competition With Texas Red Labeled MLL-derived Mutant Peptide; on FP activity change, negative = inhibition: % of control where 0% means no effect
Settings: fluorescence polarization; FP activity change, negative = inhibition: at 61.6 µM (top of the series)
Potency means the concentration at half of the fitted maximal effect; tags describe the fitted curve by direction and shape or compound fluorescence and quenching.

Chain of UniProt O00255 (O00255 whole entry, looked up): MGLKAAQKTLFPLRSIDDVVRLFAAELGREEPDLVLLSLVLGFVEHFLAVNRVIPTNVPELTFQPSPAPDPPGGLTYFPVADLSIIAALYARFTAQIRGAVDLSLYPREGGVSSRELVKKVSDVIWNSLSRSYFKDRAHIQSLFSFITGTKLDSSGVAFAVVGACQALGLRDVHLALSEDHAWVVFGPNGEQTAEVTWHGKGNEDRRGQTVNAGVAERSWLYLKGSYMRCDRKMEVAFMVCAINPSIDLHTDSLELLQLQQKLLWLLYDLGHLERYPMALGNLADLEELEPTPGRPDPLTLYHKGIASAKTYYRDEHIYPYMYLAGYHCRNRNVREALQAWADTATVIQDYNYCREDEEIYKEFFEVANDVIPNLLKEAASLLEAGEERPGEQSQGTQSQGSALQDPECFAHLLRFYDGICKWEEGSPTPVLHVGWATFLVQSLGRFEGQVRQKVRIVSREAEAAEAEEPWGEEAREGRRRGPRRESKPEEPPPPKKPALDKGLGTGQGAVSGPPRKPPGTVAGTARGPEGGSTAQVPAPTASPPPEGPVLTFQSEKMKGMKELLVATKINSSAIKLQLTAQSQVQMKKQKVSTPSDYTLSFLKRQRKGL

How did the Potency turn out when `Cc1csc(NC(=O)c2cc3c(s2)CCCC3)n1` was run?
The Potency was inconclusive: 4.47 µM [inhibitor, single point].

How did the “FP activity change, negative = inhibition” value turn out when `O=C(NCc1nnc2c(C(F)(F)F)cc(Cl)cn12)c1ccco1` was run?
Its value is inactive: 3.93%.

How did the Potency turn out when `O=C(NNC(=S)NC(=O)c1ccccc1)c1ccc(O)cc1` was run?
Its Potency is inconclusive: 20 µM [quencher, side channel, single point].

Which Potency does the source give for `CN(c1ccc(C(=O)NCCSCc2ccccc2)cc1)S(=O)(=O)c1ccccc1` here?
The Potency was inconclusive: 35.5 µM [quencher, side channel, single point].

`COc1cccc(-c2nc(NCc3cccnc3)c3ccccc3n2)c1` was tested. Which Potency did it give?
The Potency was inconclusive: 20 µM [quencher, side channel, single point].

`CCCSc1nc2sc3c(c2c(=O)n1-c1ccc(OC)cc1)CCN(C)C3` was tested. Which Potency did it give?
Its Potency is inconclusive: 3.55 µM [fluorescent, side channel, partial curve, poor fit].

For `CCc1c(C)sc(NC(=O)c2cc(-c3ccco3)on2)c1C#N`, which Potency is on record?
Its Potency is inconclusive: 25.1 µM [quencher, side channel, partial curve].

How did the Potency turn out when `CC(=O)NCc1ccc(-c2csc(N)n2)s1` was run?
The Potency was inconclusive: 22.4 µM [quencher, side channel, single point].

Which “FP activity change, negative = inhibition” value does the source give for `CC1CCN(S(=O)(=O)c2cccc(-c3cn4cc(Cl)ccc4n3)c2)CC1` here?
Its value is inactive: -0.579%.

For `CO[C@@H]1COC(=O)[C@H]2CCCN2C(=O)[C@@H](C)COC(=O)[C@H](COCc2ccccc2)NC(=O)C/C=C\[C@H]1C`, which FP activity change, negative = inhibition is on record?
Its FP activity change, negative = inhibition is inactive: 7.9% [at 11.7 µM].

How did the “FP activity change, negative = inhibition” value turn out when `CC1CCCCN1Cc1c(O)ccc2c(=O)c(-c3ccc(Br)cc3)coc12` (stereo not given) was run?
The value was inactive: 2.2%.

With `O=C(CNc1cccc2ccccc12)N/N=C/c1cccc(Oc2ccccc2)c1` as the molecule, how does the Potency read?
Its Potency is inconclusive: 12.6 µM [quencher, side channel, partial curve].

Which Potency does the source give for `O=C(Nc1ccc(S(=O)(=O)Nc2nccs2)cc1)c1cc(-c2ccccn2)nc2ccccc12` here?
Its Potency is inconclusive: 25.1 µM [quencher, side channel, partial curve].

`CC(C)CCC(O)(c1ccccc1)C(CN1CCOCC1)c1ccccc1` (stereo not given) was tested. Which Potency did it give?
Its Potency is inconclusive: 12.6 µM [fluorescent, partial curve].

How did the Potency turn out when `CCOC(=O)N1CCN(C(=O)Cc2ccc(C)cc2)CC1` was run?
The Potency was inconclusive: 35.5 µM [inhibitor, single point].

`CCc1c(C)sc(NC(=O)c2noc(C)c2[N+](=O)[O-])c1C#N` was tested. Which Potency did it give?
Its Potency is inconclusive: 39.8 µM [quencher, side channel, single point].

For `COCc1c(C(=O)OC/C(O)=C(\C#N)c2nc3ccccc3[nH]2)oc2ccccc12`, which Potency is on record?
Its Potency is inconclusive: 25.1 µM [quencher, side channel, single point].

For `CC(C)Cn1c(N)c(S(=O)(=O)c2cccs2)c2nc3ccccc3nc21`, which Potency is on record?
Its Potency is inconclusive: 31.6 µM [quencher, side channel, single point].

Which Potency does the source give for `C[N+](C)(CCCCCC[N+](C)(C)CCCN1C(=O)c2ccccc2C1=O)CCCN1C(=O)c2ccccc2C1=O` here?
The Potency was inconclusive: 35.5 µM [inhibitor, partial curve].

With `C#CCOCCOCCOCCNc1nc(N2CCN(C(=O)[C@H](Cc3ccc(O)cc3)n3cc([C@@H](N)C(C)CC)nn3)CC2)nc(N2CCN(C(=O)[C@H](CCCCN)n3cc([C@@H](N)CC(C)C)nn3)CC2)n1` (stereo not given in full) as the molecule, how does the Potency read?
Its Potency is inconclusive: 25.1 µM [inhibitor, partial curve, poor fit].

`CC(=O)c1cccc(NC(=O)/C=C/c2ccc([N+](=O)[O-])s2)c1` was tested. Which Potency did it give?
The Potency was inconclusive: 20 µM [quencher, side channel, partial curve].

For `CCOC(=O)c1c(NC(=O)CSc2c[nH]c3ccccc23)sc2c1CCC2`, which Potency is on record?
Its Potency is inconclusive: 10 µM [quencher, side channel, partial curve].

How did the Potency turn out when `O=[N+]([O-])c1cc(/C=N/O)ccc1Oc1cccc(Cl)c1` was run?
The Potency was inconclusive: 20 µM [quencher, side channel, single point].

Which Potency does the source give for `NNC(=O)CSc1nnc(-c2ccccc2)n1-c1ccccc1` here?
Its Potency is inconclusive: 25.1 µM [inhibitor, single point].

With `CN(C)c1ccc(/C=C2\CCC/C(=C\c3ccccc3)C2=O)cc1` as the molecule, how does the Potency read?
Its Potency is inconclusive: 7.08 µM [inhibitor, partial curve, poor fit].

For `O=C(NC12CC3CC(CC(C3)C1)C2)C12CC3CC(C1)CC(n1cnc(Cl)n1)(C3)C2`, which Potency is on record?
Its Potency is inconclusive: 1.41 µM [inhibitor, partial curve].

How did the Potency turn out when `COc1ccc(NC(=O)c2cc3c(-c4ccc(OC)c(OC)c4)nn(C)c3s2)cc1OC` was run?
Its Potency is inconclusive: 6.31 µM [quencher, side channel, partial curve].

`COc1ccc(N=C2S/C(=C\c3ccc(OCC(=O)O)cc3)C(=O)N2CCc2c[nH]c3ccccc23)cc1` was tested. Which Potency did it give?
The Potency was inconclusive: 28.2 µM [quencher, side channel, single point].

Which Potency does the source give for `CCOc1cccc(NC(=O)/C(C#N)=C\c2cn(CC(=O)O)c3ccccc23)c1` here?
Its Potency is inconclusive: 28.2 µM [quencher, side channel, partial curve].

For `Cc1ccc(-c2csc(Nc3ccc(S(N)(=O)=O)cc3)n2)o1`, which Potency is on record?
The Potency was inconclusive: 22.4 µM [quencher, side channel, single point].

For `COc1cc(C(C)=O)ccc1OCCN1CCC(Cc2ccccc2)CC1`, which Potency is on record?
Its Potency is inconclusive: 25.1 µM [fluorescent, side channel, partial curve].

How did the Potency turn out when `O=C(Cn1cc(C(=O)c2ccco2)c2ccccc21)Nc1ccccc1F` was run?
Its Potency is inconclusive: 31.6 µM [quencher, side channel, single point].

Which Potency does the source give for `Cc1nc(Nc2ccccc2O)c2oc3ccccc3c2n1` here?
The Potency was inconclusive: 25.1 µM [quencher, side channel, single point].

For `CN=C(Nc1ccc2c(c1)OCO2)SC1CC(=O)N(c2ccccc2)C1=O` (stereo not given), which Potency is on record?
Its Potency is inconclusive: 12.6 µM [quencher, side channel, partial curve].

With `CCCOc1ccc(NC(=O)C2CC(=O)N(C)C(=Nc3cccc(OC)c3)S2)cc1` (stereo not given) as the molecule, how does the Potency read?
The Potency was inconclusive: 14.1 µM [quencher, side channel, partial curve].

How did the “FP activity change, negative = inhibition” value turn out when `Cc1ccc(-c2nc3cnccn3c2Nc2ccc3c(c2)OCO3)o1` was run?
Its value is inactive: -2.38%.

`COc1ccc2c(c1)CC/C(=C/c1ccccn1)C2=O` was tested. Which Potency did it give?
Its Potency is inconclusive: 22.4 µM [inhibitor, partial curve].

`COc1ccc2oc(=O)c(C(=O)C[n+]3cccc(C)c3)cc2c1` was tested. Which “FP activity change, negative = inhibition” value did it give?
Its value is inactive: -1.52%.

With `CCOC(=O)Cc1csc(/C(=N/O)C(N)=O)n1` as the molecule, how does the Potency read?
Its Potency is inconclusive: 15.8 µM [inhibitor, partial curve].

With `Cn1c(CSCc2ccc(Cl)cc2)nnc1SCC(=O)Nc1nccs1` as the molecule, how does the Potency read?
Its Potency is inconclusive: 20 µM [fluorescent, side channel, single point].

`Cc1cccc(N2CCN(S(=O)(=O)c3cccc4nonc34)CC2C)c1` (stereo not given) was tested. Which Potency did it give?
The Potency was inconclusive: 14.1 µM [quencher, side channel, partial curve].

For `CN(C)c1ccc(/C=N/NC(=O)c2ccc(Cn3cc(Br)cn3)o2)cc1`, which Potency is on record?
Its Potency is inconclusive: 28.2 µM [quencher, side channel, single point].

Which Potency does the source give for `CCCCCn1c(=O)[nH]c2cc(C(=O)NCCCN(C)Cc3ccccc3)ccc2c1=O` here?
The Potency was inconclusive: 17.8 µM [fluorescent, side channel, partial curve].

Which Potency does the source give for `CC[C@@H](C)C(NC(=O)OC(C)(C)C)c1cn([C@@H](Cc2ccc(O)cc2)C(=O)N2CCN(C(=O)OC(C)(C)C)CC2)nn1` (stereo not given in full) here?
The Potency was inconclusive: 14.1 µM [fluorescent, side channel, partial curve].

With `CCOC(=O)c1cnc2nc(NCc3ccc(OC)c(OC)c3)[nH]n2c1=O` as the molecule, how does the Potency read?
The Potency was inconclusive: 39.8 µM [inhibitor, single point].

With `COCCn1c(SCc2nc3sc(C(=O)OC)c(C)c3c(=O)[nH]2)nc2ccccc21` as the molecule, how does the “FP activity change, negative = inhibition” value read?
The value was inactive: 12.5%.

`CCOc1ccccc1NC(=O)c1nc[nH]c1C(=O)Nc1ccccc1OCC` was tested. Which Potency did it give?
Its Potency is inconclusive: 2 µM [quencher, side channel, full curve, poor fit].

`COc1cccc(-c2nc(NCc3ccccc3OC)c3ccccc3n2)c1` was tested. Which Potency did it give?
The Potency was inconclusive: 10 µM [quencher, side channel, partial curve].

`Nc1c(C(=O)Nc2nc3ccccc3s2)sc2nc(-c3cccs3)ccc12` was tested. Which Potency did it give?
Its Potency is inconclusive: 3.55 µM [quencher, side channel, full curve].

For `CCCCCn1c(N)c(-c2nc3ccccc3s2)c2c([N+](=O)[O-])nn(CC)c(=O)c21`, which Potency is on record?
The Potency was inconclusive: 3.16 µM [quencher, side channel, full curve].

`COc1cc(OC)c2c(C)c(Cl)c(=O)oc2c1` was tested. Which Potency did it give?
The Potency was inconclusive: 5.01 µM [inhibitor, full curve, poor fit].

With `C=CCn1c(Cc2nc3ccc(Cl)cc3[nH]2)n[nH]c1=S` as the molecule, how does the Potency read?
The Potency was inconclusive: 35.5 µM [quencher, side channel, single point].

`O=c1cc(NS(=O)(=O)c2ccccc2)nc(SCc2ccccc2Cl)[nH]1` was tested. Which Potency did it give?
Its Potency is inconclusive: 15.8 µM [inhibitor, partial curve].

For `Nc1ccc(NC(=O)c2ccccc2)c2c1C(=O)c1ccccc1C2=O`, which Potency is on record?
The Potency was inconclusive: 10 µM [inhibitor, partial curve].

`O=C(Cn1c(=O)oc2cc(S(=O)(=O)N3CCCCC3)ccc21)N1CCc2ccccc21` was tested. Which Potency did it give?
The Potency was inconclusive: 5.01 µM [fluorescent, side channel, full curve, poor fit].
